# Several values for one entry are separate records, joined by “and”; a condition that tells them apart may be missing. Equal values may be shown once. Hit rate of the full screen: of about 420,000 compounds, about 75 (0.02%) were called active. Inconclusive results, whose numbers are uncertain, are shown with a selection of clear calls. Calls come from the whole dose curve; as a rule, active = well fitted activation curve with a large enough effect; inconclusive = small, poorly fitted or top-dose-only effect; inactive = no such curve, though single readings can be large or run the other way. Where the call is inconclusive, the potency comes from a doubtful curve fit.
# Test: qHTS for Inducers of the Endoplasmic Reticulum Stress Response (ERSR) in Human Glioma: qHTS; note: nearly all actives have a fitted effect of over 35% in size; for activation: % of control where 0% means no effect
# Conditions: U87-MG GRP78 promoter luciferase reporter, 16 h; activation: hits give high values
# Summary of the method: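 Stably transfected U87-MG glioma cells carrying a GRP78-based luciferase sensor; 16 h compound incubation. Luminescence end-point read 10 min after Bright-Glo addition at room temperature.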
# Potency is the fitted concentration of half-maximal effect; tags give direction and shape of the fitted curve.
SMILES,activation,Potency
CCN(CC)CCOC(=O)C1(C2CCCCC2)CCCCC1,inactive: -4% [middle of 5 runs],–
Cc1ccccc1C(=O)NNC(=S)NC(=O)c1cccs1,inactive: -3.13%,–
O=C(CN1CCN(Cc2ccc(F)cc2Cl)S1(=O)=O)Nc1ccc(F)cc1,inactive: -3.35%,–
CCC1=NN2C(=N)/C(=C/c3ccc(OS(=O)(=O)c4ccccc4)c(OC)c3)C(=O)N=C2S1,inactive: 3.43%,–
Cc1cc(C)c(C(CC(=O)c2cccs2)C(C#N)C#N)c(C)c1 (stereo unspecified),–,"inconclusive: 10 µM [activator, partial curve, poor fit]"
CCOC(=O)/C(=C\c1ccc([N+](=O)[O-])cc1)C(=O)c1cc(C(C)=O)c(Nc2ccccc2)s1,–,"inconclusive: 35.5 µM [activator, partial curve, poor fit]"
COc1ccc(C(=O)NCC2OCCc3ccccc32)cc1 (stereo unspecified),–,"inconclusive: 44.7 µM [activator, partial curve, poor fit]"
O=C(COC(=O)/C=C/c1ccco1)NCCN1C(=O)CSC1=O,–,"inconclusive: 28.2 µM [activator, single point]"
COc1ccc(N2CCOCC2)c(NC(=O)COc2cccc(C)c2)c1,inactive: -3.07%,–
O=C1C=C(c2ccc3ncccc3c2)C[C@@H](c2ccc(Cl)cc2)C1,–,"inconclusive: 50.1 µM [activator, single point]"
O=C(N/N=C\c1cn[nH]c1-c1ccc(Cl)cc1)c1cccs1,–,"inconclusive: 5.62 µM [activator, partial curve, poor fit]"
COc1ccccc1N(CC(=O)NC1CCCC1)C(=O)c1csnn1,–,"inconclusive: 50.1 µM [activator, single point]"
COCC(=O)N1CCC2(CCCN(C(c3ccccc3)c3ccccc3)C2)CC1,–,"inconclusive: 50.1 µM [activator, single point]"
CC(C)N=C1NN=C(c2cccs2)CS1,inactive: -7.48%,–
Cc1sc(C(C2C(=O)CC(C)(C)CC2=O)C2C(=O)CC(C)(C)CC2=O)cc1[N+](=O)[O-],–,"inconclusive: 12.6 µM [activator, single point]"
CCc1nc2ccc(C(=O)NCCCn3ccnc3)cn2c1N(C)CCCc1ccccc1,inactive: -2.15%,–
COC(=O)c1ccccc1-c1ccc(C(c2c(C)[nH][nH]c2=O)c2c(C)[nH][nH]c2=O)o1,–,"inconclusive: 50.1 µM [activator, single point]"
CCOC(=O)C1=C(C)c2ccccc2N(C(=O)OC)C1(C)C(=O)OCC (stereo unspecified),–,"inconclusive: 28.2 µM [activator, single point] and inconclusive: 14.1 µM [activator, single point]"
CCCC(=O)NC(c1ccco1)c1cc([N+](=O)[O-])c2cccnc2c1O (stereo unspecified),inactive: -3.87%,–
O=C(CCN1C(=O)C2C3C=CC(C4CC34)C2C1=O)Oc1ccc(Br)cc1 (stereo unspecified),inactive: 0.506%,–
Brc1cccc(OCCOCCn2ccnc2)c1,inactive: 0.228%,–
N#CC1=C(N)C2=CCCC[C@H]2[C@H](c2cccc(F)c2)C1(C#N)C#N,–,"inconclusive: 50.1 µM [activator, single point]"

SMILES,activation,Potency
C/C(CC(=O)Nc1ccccn1)=N\NC(=O)c1ccccc1O,–,"inconclusive: 5.01 µM [activator, full curve, poor fit]"
O=C(O)CC/C(=N\Nc1ccc(Cl)cc1)c1cccs1,–,"inconclusive: 50.1 µM [activator, single point]"
Cc1cc(C(=O)COC(=O)c2cc(O)c3ccccc3c2O)c(C)n1CC1CCCO1 (stereo unspecified),–,"inconclusive: 10 µM [activator, full curve, poor fit]"
O=C(C1CCC(=O)N(C2CC2)C1)N1CCC(Oc2cccc(C(F)(F)F)c2)CC1 (stereo unspecified),–,"inconclusive: 22.4 µM [activator, partial curve, poor fit]"
CCOC(=O)C1CCCN(C(=S)NC2CCCC2)C1 (stereo unspecified),inactive: -0.875%,–
COc1ccc(Cc2nc3ccc(C(=O)N(C)C(C)c4ccon4)cc3o2)cc1 (stereo unspecified),–,"inconclusive: 11.2 µM [activator, full curve, poor fit]"
CCn1cc(C(=O)NC(=S)Nc2ccccc2Br)cn1,inactive: 0.476%,–
Cc1ccc(C(=O)OCC(=O)NCC2COc3ccccc3O2)cc1 (stereo unspecified),inactive: 2.1%,–
CCc1nc2c(OCc3ccc(Cl)cc3)cccn2c1N(C=O)Cc1ccccc1,inactive: 4.14%,–
COc1ccc(CCNC(=O)CCn2c(=O)c3ccccc3n(Cc3cc(C)ccc3C)c2=O)cc1OC,inactive: -1.8%,–
C/C(=N\Nc1cc(-c2ccccc2)nc(-c2ccccc2)n1)c1ccc(O)c(C)c1,inactive: 4.45%,–
C=CCN=C1S/C(=C/c2cccc([N+](=O)[O-])c2)C(=O)N1CC=C,–,"inconclusive: 44.7 µM [activator, partial curve, poor fit]"
Cc1ccc(C)c(N2CCN(C(=O)Cc3c(C(=O)O)[nH]c4ccc(Cl)cc34)CC2)c1,–,"inconclusive: 50.1 µM [activator, single point]"
CN1N=C(C(C)(C)C)CSC1=Nc1ccc(F)cc1,–,"inconclusive: 28.2 µM [activator, single point]"
Cc1ccc(CN2C(=O)CCC2C(=O)N2CCN(c3ccccc3)CC2)cc1 (stereo unspecified),–,"inconclusive: 50.1 µM [activator, single point]"
Cc1ccsc1C(=O)N1CCCC(CO)(Cc2ccccc2)C1 (stereo unspecified),–,"inconclusive: 39.8 µM [activator, partial curve, poor fit]"
Cc1cc(=O)n2c3c(c4c(cc13)c(CN(C)C)cc(=O)n4C)OC2,–,"inconclusive: 50.1 µM [activator, single point]"
Cc1nnc(N/N=C/C(C)c2ccccc2)[nH]c1=O (stereo unspecified),inactive: 4.18%,–
CCCCCCNc1ccc(C(=O)OCC)cc1,–,"inconclusive: 12.6 µM [activator, single point]"
CC1=NN(C(=O)c2csc(C(C)C)c2)C(O)(C(F)(F)F)C1 (stereo unspecified),inactive: 5.51%,–
O=C(/C=C/c1ccc(O)c(O)c1)c1ccc(S(=O)(=O)N2CCCCCC2)cc1,–,"inconclusive: 50.1 µM [activator, single point]"
O=C(/C=C/C#Cc1cccc(NS(=O)(=O)c2ccccc2)c1)NO,–,"inconclusive: 6.31 µM [activator, partial curve, poor fit]"

SMILES,activation,Potency
O=c1cc(CCl)nc(Cc2c(Cl)cccc2Cl)[nH]1,–,"inconclusive: 50.1 µM [activator, partial curve, poor fit]"
CCC(C)(C(=O)NC1CCCC1)N(Cc1ccco1)C(=O)c1ccccn1 (stereo unspecified),–,"inconclusive: 5.01 µM [activator, single point]"
O=C(Nc1ccc(F)cc1)C(Sc1nc2ccccc2[nH]1)c1ccccc1 (stereo unspecified),–,"inconclusive: 31.6 µM [activator, partial curve]"
CCS(=O)(=O)n1nc(-c2ccccc2)nc1SCc1ccccc1,–,"inconclusive: 10 µM [activator, partial curve, poor fit]"
O=C(NC1CC1)c1cc2cc3ccccc3nc2s1,–,"inconclusive: 2.24 µM [activator, partial curve, poor fit]"
COc1ccc(CNC(=O)COC(=O)c2cc(C)oc2C)cc1,–,"inconclusive: 31.6 µM [activator, single point]"
Oc1ccccc1/C=N/Nc1ccccc1,–,"inconclusive: 10 µM [activator, partial curve, poor fit]"
Cc1ccc(-c2ocnc2C(=O)Nc2ccccc2NC(=O)c2ccccn2)cc1,–,"inconclusive: 50.1 µM [activator, single point]"
c1csc(-c2nc3ccccc3s2)c1,inactive: 5.47%,–
COc1cc(C)c(S(=O)(=O)NC2CC(C)(C)NC(C)(C)C2)cc1C,inactive: -4.49%,–
Cc1cc2ccccc2c(=O)n1CC(=O)Nc1ccc2c(c1)OCO2,–,"inconclusive: 63.1 µM [activator, single point]"
CCOc1cc(/C=C2\C(=O)N(c3ccc(C(N)=O)cc3)N=C2C)ccc1OC(=O)c1cccs1,–,"inconclusive: 44.7 µM [activator, single point]"
CCN(CC)c1ccc(NC(=S)Nc2ccc(F)cc2)cc1,inactive: -0.0484%,–
CC(C)NC(=S)N=Nc1c(O)[nH]c2ccc([N+](=O)[O-])cc12,–,"inconclusive: 44.7 µM [activator, single point]"
COc1ccc(-c2n(Cc3ccccc3)c3ccccc3[n+]2Cc2ccccc2)cc1,inactive: -3.79%,–
NC(=NC(=O)c1ccccc1)N1CCN(C(c2ccccc2)c2ccccc2)CC1,–,"inconclusive: 50.1 µM [activator, single point]"
Cc1ccc(C(=O)NNC(=S)NC(=O)c2ccccc2)cc1,–,"inconclusive: 39.8 µM [activator, partial curve, poor fit]"
CC(C)C1C(=O)N(Cc2cn(Cc3ccco3)nn2)CCS(=O)(=O)N1Cc1ccc(-c2ccncc2)cc1 (stereo unspecified),–,"inconclusive: 44.7 µM [activator, partial curve, poor fit]"
CC(C)C(=O)N1CCN(c2ccc([N+](=O)[O-])c(NC(C)c3ccccc3)c2)CC1 (stereo unspecified),inactive: -4.22%,–
O=C(Cn1cnc([N+](=O)[O-])c1)Nc1cc(Oc2ccc(Cl)cc2Cl)cc([N+](=O)[O-])c1,–,"inconclusive: 11.2 µM [activator, full curve, poor fit]"
CN(Cc1ccccc1)C(=O)CSc1nc2ccccc2c(=O)n1Cc1ccco1,inactive: -2.5%,–
O=C(NCCSCc1c(F)cccc1Cl)Nc1ccccc1,–,"inconclusive: 50.1 µM [activator, single point]"

# Reference: PubChem BioAssay AID602332 (National Center for Advancing Translational Sciences (NCATS), 2012)
